From PubChem BioAssay AID488969 (Vanderbilt High Throughput Screening Facility, 2010) come the findings set out here.

The structures appear in SMILES notation. In all, about 110,000 compounds were measured (“z-score”: median about -0.1, highest 2% from about 2 on). The list shows a part of the results.

The experiment deals with Metabotropic glutamate receptor 8 (Rattus norvegicus) (UniProt P70579). The experiment in a line: rat mGluR8 modulators via GIRK flux, primary screen, cell-based, thallium flux, HTS (AID 488969). The settings on record: HEK293 rat mGluR8, GIRK (G protein-gated inwardly rectifying potassium channel) thallium flux, FluoZin2; at 10 µM; stronger effect = higher value; submaximal glutamate (EC20) added with thallium.
UniProt P70579, sequence (P70579 whole entry, looked up): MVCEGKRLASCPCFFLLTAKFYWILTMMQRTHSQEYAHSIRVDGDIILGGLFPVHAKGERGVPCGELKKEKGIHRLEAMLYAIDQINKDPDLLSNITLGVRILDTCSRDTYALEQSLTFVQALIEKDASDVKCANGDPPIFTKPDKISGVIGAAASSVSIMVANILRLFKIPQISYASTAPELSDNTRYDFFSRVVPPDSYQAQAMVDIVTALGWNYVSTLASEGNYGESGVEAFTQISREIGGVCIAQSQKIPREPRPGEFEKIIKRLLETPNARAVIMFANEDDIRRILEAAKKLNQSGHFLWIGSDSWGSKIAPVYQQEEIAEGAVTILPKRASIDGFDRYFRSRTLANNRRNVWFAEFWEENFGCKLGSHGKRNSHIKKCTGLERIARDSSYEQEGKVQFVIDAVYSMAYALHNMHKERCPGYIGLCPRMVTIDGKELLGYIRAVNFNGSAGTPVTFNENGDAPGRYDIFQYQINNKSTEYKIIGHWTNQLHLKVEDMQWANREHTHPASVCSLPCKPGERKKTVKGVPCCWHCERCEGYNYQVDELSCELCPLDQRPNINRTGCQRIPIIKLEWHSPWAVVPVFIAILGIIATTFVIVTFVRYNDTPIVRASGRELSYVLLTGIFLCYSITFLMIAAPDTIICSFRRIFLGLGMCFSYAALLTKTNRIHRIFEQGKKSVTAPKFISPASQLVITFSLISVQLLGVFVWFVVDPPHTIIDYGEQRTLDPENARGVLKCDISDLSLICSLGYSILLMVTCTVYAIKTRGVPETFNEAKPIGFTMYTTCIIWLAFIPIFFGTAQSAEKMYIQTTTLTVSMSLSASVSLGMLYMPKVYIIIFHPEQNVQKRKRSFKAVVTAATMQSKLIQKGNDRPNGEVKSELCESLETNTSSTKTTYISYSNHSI
On to `CC(=O)Nc1ccc(NC(=O)c2ccc(C3SCC(=O)N3CCc3ccccc3)cc2)cc1` (stereo unspecified), for which the z-score is -0.311.

The molecule `O=C(CSc1ncnc2nc[nH]c12)Nc1ccccc1C(F)(F)F` yielded a z-score of 0.0257. The same measure for `O=C1Nc2ccccc2C(=O)C1(Cl)Cc1ccccc1` (stereo unspecified): -0.82; for `CC(NC(=O)c1cccs1)c1nnc(SCc2ccc(Cl)cc2Cl)n1C` (stereo unspecified): -0.258.

Take `N#Cc1cc(-c2ccccc2)oc1/N=C/c1ccccc1O`: the z-score was 0.312. The same measure for `CC(C)N(C1=N/C(=C\c2ccco2)C(=O)N1c1ccccc1)C(C)C`: -0.277. As for `O=C(/C=C/c1ccc(Cl)cc1)N1CCN(c2ncccn2)CC1`, the z-score is -0.106. The same measure for `COc1ccc(CCn2c(-c3ccco3)nc3ccccc3c2=O)cc1OC`: -0.123; for `COC(=O)c1ccccc1N1C(=O)C2C(C1=O)C1C=CC2C12CC2` (stereo unspecified): 0.0592; for `Cn1c(=O)c2cc(S(=O)(=O)Nc3cccc(F)c3)ccc2n(C)c1=O`: -0.316. The same measure for `CC1(C)CC(=O)c2cn3nc(C(F)(F)F)nc3nc2C1`: -0.129; for `COc1ccc(-n2c(=O)c3c4c(sc3n(CC(=O)NCc3ccco3)c2=O)CCC4)c(OC)c1`: -0.818; for `COc1ccc(Nc2c3c(nc4c(-c5ccccc5)c(C)nn24)CCC3)cc1`: -0.865. As to `Cc1c(C(=O)NCC2CCCO2)cccc1[N+](=O)[O-]` (stereo unspecified), the z-score is -0.31.

Regarding `Cc1cccc(NC(=O)C2CC(=O)OC23CCCCC3)c1` (stereo unspecified), the z-score was -0.00907. With `COc1ccc(OC)c(NC=C2C(=O)OC(C)(C)OC2=O)c1`, the z-score was -0.191. The value for `O=C(CN1CCN(C2CCCCC2)CC1)c1c[nH]c2ccccc12` was -0.182; that for `O=C(NC(=S)N1CCN(c2ccc(Cl)cc2[N+](=O)[O-])CC1)c1ccco1` was 2.99. The same measure for `CCOc1ccccc1Oc1c(C)oc2c(CN3CCN(CCO)CC3)c(O)ccc2c1=O`: -0.395; for `O=C(CSc1nc2c(sc3ccccc32)c(=O)n1CCc1ccccc1)NCc1ccco1`: 0.0812; for `Cc1ccc2nc(C)c(C)nc2c1N`: -0.23.

On to `Cc1ccc(-n2nnnc2SCn2nnc3ccccc3c2=O)c(C)c1`, for which the z-score was -0.341. As for `Cc1onc(-c2ccccc2)c1C(=O)NCc1ccco1`, the z-score turned out to be 0.49. The same measure for `Cn1cc(/C=N\NC(=O)C2COc3ccccc3O2)c2ccccc21` (stereo unspecified): -0.172; for `O=C(NCCN1CCOCC1)C1CCC(=O)N1Cc1ccc(F)cc1` (stereo unspecified): 0.194. Regarding `O=C(CNC(=O)c1cccc(F)c1)OCc1cc(=O)n2cc(Br)ccc2n1`, the z-score was -0.354. The same measure for `O=C(CN(Cc1ccccc1)S(=O)(=O)c1cccc(C(F)(F)F)c1)NC1CCCCC1`: 0.114; for `COc1ccc(CCNC(=O)CN2C(=O)c3ccccc3S2(=O)=O)cc1`: -0.123. The value for `CCOc1ccc(C(=O)SC2=NCCS2)cc1` was -0.0564; that for `CC(C)(C)c1cc(OC(=O)c2ccncc2)ccc1O` was -0.187; that for `O=C(NC1CC1)c1sccc1-n1cccc1` was -0.0372.
